Reference: publication PMC6188873
No constants are given. Whether binding was seen depends on the method and setting. Binding seen in cells or lysates may run through a third protein. Some binding calls cover weakened binding; strength is not graded here.

The chains behind the UniProt entries cited, without tags or fusion partners.
UniProt Q96KP1: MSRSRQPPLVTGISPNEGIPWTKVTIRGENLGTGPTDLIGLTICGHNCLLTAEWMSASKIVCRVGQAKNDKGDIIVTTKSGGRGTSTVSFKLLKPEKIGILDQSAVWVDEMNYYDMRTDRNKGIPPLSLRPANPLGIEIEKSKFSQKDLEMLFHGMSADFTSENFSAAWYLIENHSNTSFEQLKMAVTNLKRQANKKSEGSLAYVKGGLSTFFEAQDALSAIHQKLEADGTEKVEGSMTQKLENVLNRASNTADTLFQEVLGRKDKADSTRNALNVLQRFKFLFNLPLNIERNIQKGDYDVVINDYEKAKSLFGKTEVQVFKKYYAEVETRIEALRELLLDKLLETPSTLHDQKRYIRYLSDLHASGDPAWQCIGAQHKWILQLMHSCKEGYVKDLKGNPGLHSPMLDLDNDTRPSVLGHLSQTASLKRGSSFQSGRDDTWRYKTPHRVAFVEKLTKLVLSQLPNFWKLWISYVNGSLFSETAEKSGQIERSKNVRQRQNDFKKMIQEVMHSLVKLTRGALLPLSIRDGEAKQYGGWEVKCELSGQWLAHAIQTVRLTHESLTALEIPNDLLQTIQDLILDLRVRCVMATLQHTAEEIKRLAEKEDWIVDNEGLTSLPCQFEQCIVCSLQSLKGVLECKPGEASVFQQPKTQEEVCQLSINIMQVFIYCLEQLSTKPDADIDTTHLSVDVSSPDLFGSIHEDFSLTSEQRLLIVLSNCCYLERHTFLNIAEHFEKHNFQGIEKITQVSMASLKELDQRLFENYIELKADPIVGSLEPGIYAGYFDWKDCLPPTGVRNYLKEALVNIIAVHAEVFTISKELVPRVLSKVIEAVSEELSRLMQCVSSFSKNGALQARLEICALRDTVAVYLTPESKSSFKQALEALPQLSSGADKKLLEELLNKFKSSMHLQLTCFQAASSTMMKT
UniProt Q86WV6: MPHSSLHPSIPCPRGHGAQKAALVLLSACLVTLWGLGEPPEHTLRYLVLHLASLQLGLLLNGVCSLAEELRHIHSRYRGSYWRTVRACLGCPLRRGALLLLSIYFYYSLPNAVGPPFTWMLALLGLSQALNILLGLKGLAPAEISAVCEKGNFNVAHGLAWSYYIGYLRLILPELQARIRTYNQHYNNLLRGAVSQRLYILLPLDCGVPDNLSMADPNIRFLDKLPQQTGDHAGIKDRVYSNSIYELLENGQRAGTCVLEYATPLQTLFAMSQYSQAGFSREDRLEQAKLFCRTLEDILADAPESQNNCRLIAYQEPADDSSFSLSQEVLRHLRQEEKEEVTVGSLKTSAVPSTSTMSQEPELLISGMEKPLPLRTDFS
UniProt Q6PF93: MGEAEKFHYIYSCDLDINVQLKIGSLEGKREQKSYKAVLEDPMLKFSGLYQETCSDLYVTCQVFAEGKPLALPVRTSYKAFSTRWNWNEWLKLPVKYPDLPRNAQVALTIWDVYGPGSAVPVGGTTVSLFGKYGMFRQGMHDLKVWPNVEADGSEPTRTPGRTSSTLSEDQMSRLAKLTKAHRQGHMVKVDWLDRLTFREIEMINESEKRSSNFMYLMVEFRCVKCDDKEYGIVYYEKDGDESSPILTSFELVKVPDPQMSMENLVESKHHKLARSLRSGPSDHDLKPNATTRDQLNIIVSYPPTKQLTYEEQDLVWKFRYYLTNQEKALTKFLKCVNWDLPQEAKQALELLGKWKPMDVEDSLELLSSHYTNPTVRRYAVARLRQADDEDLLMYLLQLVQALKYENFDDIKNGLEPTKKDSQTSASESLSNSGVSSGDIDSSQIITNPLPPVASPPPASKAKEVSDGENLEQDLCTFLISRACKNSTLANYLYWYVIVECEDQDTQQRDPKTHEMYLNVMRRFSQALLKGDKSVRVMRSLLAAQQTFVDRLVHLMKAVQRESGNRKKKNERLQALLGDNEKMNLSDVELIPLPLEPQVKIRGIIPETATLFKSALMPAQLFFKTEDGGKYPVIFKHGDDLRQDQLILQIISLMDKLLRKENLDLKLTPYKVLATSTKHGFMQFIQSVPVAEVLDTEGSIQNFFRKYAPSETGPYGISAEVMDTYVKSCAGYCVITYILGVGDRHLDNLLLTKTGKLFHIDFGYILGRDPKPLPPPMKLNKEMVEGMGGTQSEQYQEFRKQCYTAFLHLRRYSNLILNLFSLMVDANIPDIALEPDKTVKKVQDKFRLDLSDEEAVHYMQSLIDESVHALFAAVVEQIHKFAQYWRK

Assays:
TRAPβ = biological target: T1, TRAPβ (UniProt P43308); test: co-IP; HEK293 cells (2x10^6) transfected with the indicated plasmids (5 μg each) for 24 h (Fig 6E also with knockdown of SNX8); NP40 lysis buffer (20 mM Tris-HCl, 150 mM NaCl, 1 mM EDTA, 1% Nonidet P-40); indicated antibody or control IgG with Protein-G sepharose, at least 2 hr; washed three times with lysis buffer containing 500 mM NaCl; immunoblot
T1 sequence: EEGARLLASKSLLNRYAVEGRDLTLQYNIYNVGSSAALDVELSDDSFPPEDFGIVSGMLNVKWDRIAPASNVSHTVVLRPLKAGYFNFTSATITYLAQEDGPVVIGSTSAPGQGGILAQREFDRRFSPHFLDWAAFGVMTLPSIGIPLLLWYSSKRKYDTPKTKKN

Sec5 = Sec5 (UniProt Q96KP1); test: as above
[1] = biological target: T2, SNX8 (endogenous, mouse lung fibroblasts) (mouse (endogenous in MLFs)) (UniProt Q8CFD4); test: co-IP; endogenous co-immunoprecipitation from MLFs (3x10^7), un-infected or early after HSV-1 infection; NP40 lysis buffer; Protein-G sepharose; washes with 500 mM NaCl; immunoblot
T2 sequence: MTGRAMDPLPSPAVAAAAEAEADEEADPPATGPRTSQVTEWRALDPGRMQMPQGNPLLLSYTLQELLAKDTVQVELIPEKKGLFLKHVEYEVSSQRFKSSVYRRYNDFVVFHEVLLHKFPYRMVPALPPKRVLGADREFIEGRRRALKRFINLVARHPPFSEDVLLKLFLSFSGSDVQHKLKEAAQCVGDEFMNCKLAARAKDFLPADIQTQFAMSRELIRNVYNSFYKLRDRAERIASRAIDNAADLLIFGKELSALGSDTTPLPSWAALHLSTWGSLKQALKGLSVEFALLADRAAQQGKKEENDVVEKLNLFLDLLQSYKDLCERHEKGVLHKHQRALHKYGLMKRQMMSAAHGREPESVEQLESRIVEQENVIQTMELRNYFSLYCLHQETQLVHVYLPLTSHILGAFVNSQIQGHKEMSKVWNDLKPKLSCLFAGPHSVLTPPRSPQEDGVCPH

Row | binding (TRAPβ) | binding (Sec5) | binding [1] | Substance
1 | binds | binds | – | MITA (also called STING, MPYS, ERIS, or TMEM173) (from UniProt Q86WV6 1-379)
2 | – | – | binds | VPS34 (endogenous, mouse lung fibroblasts) (from UniProt Q6PF93 1-887) (enzyme)
